The whole screen tested about 310,000 compounds, of which about 18,000 (5.8%) were called active. Inconclusive results, whose numbers are uncertain, are shown with a selection of clear calls. The call rests on the fitted dose curve; in most records, active means well fitted inhibition curve with a large enough effect; inconclusive means small, poorly fitted or top-dose-only effect, or another doubt; inactive means no such curve, though single readings can be large or run the other way. No potency is given beside an inconclusive call; the fits are too rough.
Test: Primary qHTS for delayed death inhibitors of the malarial parasite plastid, 48 hour incubation
Settings: P. falciparum luciferase growth in erythrocytes; series mostly up to 28.7 µM; activity change, negative = inhibition: at the top concentration
Method in brief: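 Luciferase-expressing P. falciparum in infected erythrocytes (2% hematocrit, 0.1% parasitemia final) in RPMI 1640/0.5% Albumax were exposed to compound for 48 hours at 37 C, 5% CO2; growth read as luminescence.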
With `CCCN1CCN(S(=O)(=O)c2ccc3c(c2)OCCO3)CC1` the Potency was inconclusive [inhibitor, single point].
In the case of `COc1ccccc1NC(=O)c1cc(-c2ccc(OC)c(OC)c2)nc2ccccc12`, the Potency is reported as inconclusive [inhibitor, single point].
In the case of `CCN(CC)c1ccc(/C=N/NC(=O)c2cccc(S(=O)(=O)Nc3ccccc3OC)c2)c(O)c1`, the Potency is reported as active: 9.28 µM.
For `O=C(Nc1ccc(CN2CCOCC2)cc1)c1cc(Cl)ccc1Cl`, the “activity change, negative = inhibition” value was inactive: -23.4%.
With `c1ccc(C2CCCN(Cc3nc(CC4CC4)no3)CC2)cc1` (centres undefined) the Potency was inconclusive [inhibitor, single point].
With `Cc1ccc(N2C(=O)C(CN3CCCCC3)C2c2ccccc2)cc1` (centres undefined) the Potency was inconclusive [inhibitor, single point].
For `Cc1ccccc1NS(=O)(=O)c1cc(C(=O)Nc2ccccc2-c2ccccc2)ccc1Cl`, the Potency was inconclusive [inhibitor, single point].
For `CC1(C)CC(=O)C=C(c2cccc(O)c2)C1=O`, the “activity change, negative = inhibition” value was inactive: 12.8%.
With `CCOc1ccc2nc(SCC(=O)N3CCN(C(=O)c4ccco4)CC3)sc2c1` the “activity change, negative = inhibition” value was inactive: -0.359%.
For `COc1ccc(C(=O)N(C)CC(=O)Nc2cccc(F)c2)cc1S(=O)(=O)NC1CCCC1`, the Potency was inconclusive [inhibitor, single point].
In the case of `CCc1cccc(NC(=O)Cn2cc(C=O)c3ccccc32)c1`, the “activity change, negative = inhibition” value is reported as inactive: 13.3%.
With `Cc1cccn2c(=O)c3cc(C(=O)NCc4cccnc4)c(=N)n(CC4CCCO4)c3nc12` (centres undefined) the Potency was inconclusive [inhibitor, partial curve, poor fit].
With `COc1ccc(NC(=O)c2c3c(nc4ccccc24)CCN(Cc2ccccc2)C3)c(OC)c1` the Potency was active: 7.38 µM.
With `O=C(c1ccccc1-c1ccccc1)N1CCN(c2ccccn2)CC1` the Potency was inconclusive [inhibitor, single point].
In the case of `CCCCc1n(CC(=O)c2ccc(Cl)cc2)c2ccccc2[n+]1C`, the Potency is reported as active: 1.17 µM.
For `COc1ccc(/C=C/CN2CCN(CCc3ccccc3)C(CCO)C2)cc1` (centres undefined), the Potency was inconclusive [inhibitor, single point].
For `CCOC(=O)C1=C(C)N(C)C(=S)NC1c1c(OCC)ccc2ccccc12` (centres undefined), the Potency was inconclusive [inhibitor, single point].
With `N=c1n(CCO)c2ccccc2n1Cc1ccccc1` the “activity change, negative = inhibition” value was inactive: 1.89%.
With `Cc1ccc(OCC(=O)Nc2ccncc2)cc1` the “activity change, negative = inhibition” value was inactive: 16.6%.
With `O=C(CCSc1nc(-c2ccco2)cc(C(F)(F)F)n1)N1CCCc2ccccc21` the Potency was active: 14.7 µM.
With `CCCCn1c(SCC(=O)N2CC(C)CC(C)C2)nc2cc(S(N)(=O)=O)ccc21` (centres undefined) the Potency was inconclusive [inhibitor, single point].
For `Cc1nnc(SCC(=O)NNC(=O)c2ccc(Br)cc2)n1C`, the “activity change, negative = inhibition” value was inactive: 18.3%.
In the case of `CCCN1CCC(NCC(C)c2ccccc2)CC1` (centres undefined), the Potency is reported as inconclusive [inhibitor, single point].
For `Cc1oc(-c2ccc(Cl)cc2)nc1CS(=O)CC(=O)NCCCN1CC(C)CC(C)C1` (centres undefined), the Potency was inconclusive [inhibitor, single point].
With `Cc1nnc(SCC(=O)N2c3ccccc3Sc3ccccc32)n1N` the “activity change, negative = inhibition” value was inactive: -11.6%.
In the case of `OCC1OC(O)C(O)C(O)C1O` (centres undefined), the “activity change, negative = inhibition” value is reported as inactive: -9.29%.
In the case of `Cc1ccc(-c2nnc(Nc3ccc4c(c3)OCO4)c3ccccc23)cc1S(=O)(=O)NC(C)C`, the Potency is reported as active: 2.94 µM.
With `CCS(=O)(=O)NCC(c1ccco1)N1CCN(c2ccccc2)CC1` (centres undefined) the “activity change, negative = inhibition” value was inactive: 4.88%.
In the case of `CC(C)CCn1c(=O)c(C(=O)NCc2ccc3c(c2)OCO3)c(O)c2ccccc21`, the Potency is reported as active: 5.86 µM.
In the case of `COc1ccc(C(CNC(=O)c2cc3ccccc3cc2O)N2CCOCC2)cc1` (centres undefined), the Potency is reported as active: 9.28 µM.
For `COc1ccc(C(=O)N2CCCCCC2)cc1S(=O)(=O)N1CCOCC1`, the “activity change, negative = inhibition” value was inactive: 5.65%.
In the case of `Cc1ccc(Cn2c(=O)n(Cc3ccco3)c(=O)c3ccccc32)cc1`, the Potency is reported as inconclusive [inhibitor, single point].
In the case of `CCCN1CCN(CCCNC(=O)c2ccc3c(c2)NC(=O)c2ccccc2S3)CC1`, the Potency is reported as inconclusive [inhibitor, partial curve].
With `Cc1ccc(NC(=O)Nc2ccc3c(c2)N(C)C(=O)CS3)nc1` the Potency was inconclusive [inhibitor, single point].
With `CCc1ccccc1NC(=S)N1CCCCCC1` the “activity change, negative = inhibition” value was inactive: 0.663%.
In the case of `O=C(COC(=O)c1ccc(-c2ccc([N+](=O)[O-])cc2)o1)NC(=O)NC12CC3CC(CC(C3)C1)C2`, the Potency is reported as inconclusive [inhibitor, partial curve, poor fit].
With `CCOc1ccc(CNC(=O)CCCC(=O)n2ncc3cc(C)ccc32)cc1` the Potency was inconclusive [inhibitor, single point].
With `CC(C)(C)NC(=O)c1ccc(COc2ccccc2Br)o1` the Potency was inconclusive [inhibitor, single point].
For `CN(C)CCCn1c2c(c(SCC(=O)Nc3cccc4ccccc34)nc1=O)CCC2`, the Potency was inconclusive [inhibitor, partial curve].
In the case of `CC(NC(=O)/C(C#N)=C/c1ccc(OCC(=O)O)cc1)c1ccccc1` (centres undefined), the “activity change, negative = inhibition” value is reported as inactive: 13%.
With `NC(=O)c1cc([N+](=O)[O-])c(Cl)cc1NCc1ccncc1` the Potency was inconclusive [inhibitor, single point].
For `CN(C)/C=N/C1=C(C#N)C(c2cccs2)c2ccc3ccccc3c2O1` (centres undefined), the “activity change, negative = inhibition” value was inactive: -1.23%.
With `COc1ccc(CCNC(=O)COC(=O)C23CC4CC(CC(C4)C2)C3)cc1` the Potency was inconclusive [inhibitor, single point].
In the case of `O=C(C1CCCO1)N1CCN(C(=S)Nc2ccc(F)c(Cl)c2)CC1` (centres undefined), the “activity change, negative = inhibition” value is reported as inactive: -1.66%.
With `CC(C)n1c(SCC(=O)Nc2ccccc2N2CCOCC2)nc2c1c(=O)n(C)c(=O)n2C` the Potency was inconclusive [inhibitor, single point].
For `O=C(N=C1c2ccccc2CN1c1cccc(Cl)c1)c1cccnc1`, the “activity change, negative = inhibition” value was inactive: 65.6%.
In the case of `CCOC(=O)CCC(=O)Nc1ccc([N+](=O)[O-])cc1C`, the “activity change, negative = inhibition” value is reported as inactive: 11%.
In the case of `CCOc1ccc(C(=O)N2CCC(C(=O)c3ccc4c(c3)OCCO4)CC2)cc1`, the “activity change, negative = inhibition” value is reported as inactive: -15.6%.
In the case of `COC(=O)c1ccc(NC(=S)NC(=O)c2c(-c3ccccc3)noc2C)cc1`, the Potency is reported as inconclusive [inhibitor, single point].

Source: PubChem BioAssay AID504832 (National Center for Advancing Translational Sciences (NCATS), 2011)
On the % scale 0 is the no-effect control and ±100 the full control effect; potency means the concentration at half of the fitted maximal effect; tags describe the fitted curve by direction and shape.
